Among all 330,000 compounds or so, about 4,200 (1.3%) were called active. This list was built around the results that the source calls inconclusive (neither active nor inactive); the mix of calls is not that of the screen. The call rests on the fitted dose curve; in most records, active means well fitted activation curve with a large enough effect; inconclusive means small, poorly fitted or top-dose-only effect; inactive means no such curve, though single readings can be large or run the other way. Where the call is inconclusive, the potency comes from a doubtful curve fit.
assay: qHTS screen for small molecules that induce genotoxicity in human embryonic kidney (HEK293T) cells expressing luciferase-tagged ELG1; conditions: HEK293T ELG1-luciferase reporter, luminescence, 16 h; series mostly up to 46 µM; further: nearly all actives have a fitted effect of over 60% in size
Summary of the method: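 HEK293T cells expressing luciferase-tagged ELG1 were exposed to compound or DMSO vehicle for 16 hr at 37 °C and 5% CO2. Luciferase activity was then measured with ONE-Glo after 30 min at room temperature.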
Potency means the concentration at half of the fitted maximal effect; tags describe the fitted curve by direction and shape.

Row | SMILES | Potency
1 | COc1ccc(CC(=O)Nc2ccc(-c3cn4ccccc4n3)cc2)cc1OC | inconclusive: 20.6 µM [activator, partial curve, poor fit]
2 | Cc1nn(C)cc1C(=O)Nc1cc(Oc2ccc(Cl)cc2)cc([N+](=O)[O-])c1 | inactive
3 | Cn1c(=O)c2sccc2n(Cc2ccc(Br)cc2)c1=O | inconclusive: 16.4 µM [activator, partial curve, poor fit]
4 | O=C(O)c1nn(CCOc2ccccc2F)c(=O)c2ccccc12 | inconclusive: 25.9 µM [activator, partial curve, poor fit]
5 | CSCCC(NC(=O)c1ccc(Cl)cc1)C(=O)OCC(=O)N1CCCC1=O (centres undefined) | inactive
6 | COc1ccccc1Nc1nc(-c2sc(NC(=O)c3ccccc3)nc2C)cs1 | inactive
7 | Nc1nnc(-c2ccc(Cl)cc2)s1 | inconclusive: 29.1 µM [activator, single point]
8 | COc1cccc(C(=O)Nc2nnc(C(C)C)s2)c1 | active: 3.66 µM
9 | c1coc(-c2nnc(-c3cccs3)o2)c1 | inconclusive: 18.4 µM [activator, partial curve, poor fit]
10 | O=C(CNC(=O)c1ccccc1F)Nc1ccc2c(c1)OCO2 | inconclusive: 18.3 µM [activator, partial curve, poor fit]
11 | O=C(CCCN1C(=O)/C(=C/c2ccc3c(c2)OCO3)SC1=S)Nc1cccc(C(=O)O)c1 | inconclusive: 7.3 µM [activator, partial curve, poor fit]
12 | CCc1ccn2cc(-c3cc(-c4ccccc4)no3)nc2c1 | inconclusive: 0.0651 µM [activator, full curve, poor fit]
13 | O=C(Nc1ccc([N+](=O)[O-])cc1)c1ccc(S(=O)(=O)N2CCCC2)cc1 | inactive
14 | COC(=O)c1c(NC(=O)C2CCCCC2C(=O)O)sc2c1CCCCC2 (centres undefined) | inconclusive: 18.3 µM [activator, single point]
15 | CCOc1ccc(NS(=O)(=O)c2ccc(C(=O)NCc3ccncc3)cc2)cc1 | inconclusive: 5.8 µM [activator, partial curve, poor fit]
16 | CCN(CC)C(=O)CC(c1cc(OC)c(OC)c(OC)c1)c1c(OC)cc(OC)c2c(-c3ccccc3)cc(=O)oc12 (centres undefined) | inactive
17 | Cc1cc(NC(=O)/C(C#N)=C/c2ccc(-c3ccc(SC(F)F)cc3)o2)n(-c2ccccc2)n1 | inactive
18 | CSc1ccccc1OCc1cc(C(=O)N(C)Cc2cnccn2)no1 | inconclusive: 29.1 µM [activator, single point]
19 | O=C(Nc1cccc(Cl)c1)OCc1ccccn1 | inconclusive: 10 µM [activator, partial curve]
20 | Cc1c(OC(C)C(=O)NCc2ccncc2)ccc2c3c(c(=O)oc12)CCCC3 (centres undefined) | inactive
21 | Cc1nc2cc(NC(=O)C3COc4ccccc4O3)ccc2s1 (centres undefined) | inconclusive: 7.3 µM [activator, partial curve, poor fit]
22 | CCOC(=O)CSc1cccc2cccnc12 | inconclusive: 18.4 µM [activator, partial curve, poor fit]
23 | CCCCc1ccc(NS(=O)(=O)c2cccc(C(=O)N3CCNC(=O)C3)c2)cc1 | inactive

Row | SMILES | Potency
24 | O=C(Nc1ccc2ccccc2c1)C(=O)C1C(=O)Nc2ccccc21 (centres undefined) | inconclusive: 23.1 µM [activator, partial curve, poor fit]
25 | Cc1ccccc1/C=C\c1nc2ccccc2c(=O)[nH]1 | active: 18.3 µM
26 | CN(C(=O)CSc1ncnc2ccccc12)C1CCCCC1 | inconclusive: 20.6 µM [activator, partial curve, poor fit]
27 | COC(=O)C(CO)NC(=O)C1CCCN1C(=O)CNC(=O)OCc1ccccc1 (centres undefined) | inactive
28 | COc1ccc(NC(=O)c2cc3ccccc3o/c2=N\NS(=O)(=O)c2ccc(C)cc2)cc1 | inconclusive: 4.11 µM [activator, partial curve, poor fit]
29 | CCOc1ccc(C(=O)N(Cc2ccccc2)c2cccc(C)c2)cc1OC | inconclusive: 29.1 µM [activator, partial curve, poor fit]
30 | Cc1ccc(C)n1-c1ccc(-c2ccnc(N)n2)cc1 | inconclusive: 25.9 µM [activator, partial curve, poor fit]
31 | O=C(CCc1ccc(S(=O)(=O)NCCc2ccccc2)cc1)N1CCN(Cc2ccc3c(c2)OCO3)CC1 | inactive
32 | C#CCn1c(=NC(=O)c2cccs2)sc2cccc(OCC)c21 | inconclusive: 32.6 µM [activator, partial curve, poor fit]
33 | O=C(O)c1ccc(N/N=C/c2c(F)cccc2Cl)cc1 | active: 0.291 µM
34 | COc1ccc(CNCc2ccco2)cc1OCc1ccccc1 | inconclusive: 29.1 µM [activator, single point]
35 | COc1cc(NC(=O)CSc2ncnc3scc(-c4ccccc4)c23)c(C(=O)O)cc1OC | inactive
36 | CC(=O)N(c1ccccc1)c1nnc(-c2cnc(C)cn2)s1 | active: 9.2 µM
37 | COc1cccc(-c2nc3n(n2)C(c2ccccc2Cl)C(C(N)=O)=C(C)N3)c1 (centres undefined) | inconclusive: 20.6 µM [activator, partial curve]
38 | COc1ccc(CCNC(=O)c2cccn2C)cc1 | inactive
39 | CCOc1ccc(NC(=O)CSc2nnc(CCNC(=O)c3ccc(OC)cc3)n2C)cc1 | inconclusive: 23.1 µM [activator, partial curve]
40 | N#Cc1cc2c(=O)n3ccccc3nc2n(Cc2ccco2)c1=NC(=O)c1ccco1 | inactive
41 | Cc1cccc(NC(=O)COC(=O)C2COc3ccccc3O2)c1C (centres undefined) | inactive
42 | O=C(N/N=C/C(Cl)=C\c1ccccc1)c1ccco1 | inconclusive: 10.3 µM [activator, partial curve]
43 | Cc1cc(C)c(NC(=O)CS(=O)CC(=O)Nc2ccc(N3CCOCC3)cc2)c(C)c1 (centres undefined) | inactive
44 | C(=N\Nc1cc(N2CCCCC2)ncn1)/c1ccco1 | inconclusive: 4.61 µM [activator, partial curve]
45 | Cc1ccc(NC(=O)c2ccc(C#CC3(O)CCCCC3)cc2)cc1C | inactive
46 | CC(C)CN1CCC(=O)N(CCSc2ccccc2)CC1 | inconclusive: 5.17 µM [activator, full curve, poor fit]

Row | SMILES | Potency
47 | COc1cccc(NC(=O)CN(C)C(=O)c2ccc(COc3ccccc3)cc2)c1 | inconclusive: 23.1 µM [activator, single point]
48 | O=C(NCC1CCCO1)Nc1ccc2c(c1)OCO2 (centres undefined) | inconclusive: 32.6 µM [activator, partial curve, poor fit]
49 | CC(=O)c1cnc(-c2ccccc2)s1 | inconclusive: 20.6 µM [activator, partial curve, poor fit]
50 | COc1ccc(-c2nc3ccccn3c2Cl)cc1 | active: 1.16 µM
51 | COc1ccc2cnn(-c3ccc(C)cc3)c(=O)c2c1OC | active: 14.6 µM
52 | COC/C=C/C1=CC2=CC(=O)C(C)(OC(=O)c3cnc4ccccc4n3)C(=O)C2=CN1Cc1ccccc1 (centres undefined) | inconclusive: 29.1 µM [activator, partial curve, poor fit]
53 | Cc1ccc(C(=O)Nc2ccc(NC(=O)c3ccco3)c(C)c2)cc1 | inconclusive: 1.16 µM [activator, partial curve]
54 | N/C(=N\OC(=O)c1ccco1)c1cccnc1 | inconclusive: 13 µM [activator, partial curve, poor fit]
55 | CC(/C=N/NC(=O)c1ccccc1F)=C\c1ccccc1 | inconclusive: 2.59 µM [activator, full curve]
56 | CCOC(=O)[C@@H]1[C@H]2COc3ccccc3[C@H]2N2C(=O)N(c3ccc(Cl)cc3)C(=O)[C@@]12C | inactive
57 | CSc1ccc(-c2nnn(Cc3ccc(Br)cc3)n2)cc1 | inconclusive: 20.6 µM [activator, single point]
58 | CCOC(=O)c1cc(C(=O)Nc2ccc(C)c(F)c2)nn1C | inconclusive: 16.4 µM [activator, partial curve, poor fit]
59 | CCn1nnc2cc(C(=O)Nc3cc(OC)cc(OC)c3)ccc21 | inconclusive: 11.6 µM [activator, single point]
60 | CCN(CC)C(=N)/C(C#N)=N/Nc1ccccc1 | inconclusive: 23.1 µM [activator, partial curve, poor fit]
61 | Clc1ccc(C2=Nn3c(nnc3-c3n[nH]c4c3CCC4)SC2)cc1 | inconclusive: 18.4 µM [activator, partial curve, poor fit]
62 | COc1cccc([C@@H]2Oc3ccc(OC)cc3C(=O)[C@H]2OC(=O)Nc2cc(OC)c(OC)c(OC)c2)c1 | inconclusive: 25.9 µM [activator, partial curve, poor fit]
63 | C=CCNc1ncnc2c1[nH]c1ccc(Cl)cc12 | inconclusive: 5.8 µM [activator, partial curve]
64 | COc1cc2c(cc1OC)CN(C(=O)c1nn(Cc3ccccc3)c(=O)c3ccccc13)CC2 | inactive
65 | Cc1onc(NC(=O)NC(=O)c2ccccc2F)c1Br | inconclusive: 20.6 µM [activator, partial curve, poor fit]
66 | O=C(CCCC(=O)c1ccc(F)cc1)c1ccc(F)cc1 | inconclusive: 18.3 µM [activator, partial curve]
67 | Cc1ccc(NC(=O)CNC(=O)c2ccco2)c(Cl)c1 | inconclusive: 3.66 µM [activator, partial curve, poor fit]
68 | CCN(CC)C(=O)c1cc(-c2ccccc2OC)on1 | inconclusive: 20.6 µM [activator, partial curve, poor fit]
69 | CC(C)c1ccc(NC(=O)CCNC(=O)Cn2ccc3ccccc3c2=O)cc1 | inconclusive: 25.9 µM [activator, partial curve, poor fit]

From PubChem BioAssay AID504466 (National Center for Advancing Translational Sciences (NCATS), 2011)
